Assay results as given in patent publication US12721899B2, “Pharmaceutical compositions comprising an anti-claudin 18.2 antibody-drug conjugate and method of use thereof to treat a tumor or cancer” (JIANGSU HENGRUI PHARMACEUTICALS CO., LTD., priority 2020, dated 2026).

Tests used:
[1] = tested on: NUGC4 cells expressing Claudin18.2 at moderate levels; assay: ADCC effect evaluation of antibodies (moderate expression); assay type: cell-based, human; conditions: in words; moderate levels (FIG. 3B)
Protocol: (§1) A variety of NUGC4 cells (expressing Claudin 18.2 at high, moderate and low levels) were digested, centrifuged at 1000 rpm, resuspended, and counted. The cells were resuspended at a density of 3×10^5 cells/mL in phenol red-free RPMI 1640 (GIBCO™, 11835-030) supplemented with 10% FBS (New Zealand ultra-low IgG fetal bovine serum, GIBCO™, 1921005PJ). Cells were added to a 96-well plate (CORNING®, 3903) at 25 μL/well (7500 cells/well). An antibody was diluted into the phenol red-free medium to obtain a 3× antibody dilution, which was then added to the cell plate at 25 μL/well. The plate was incubated in a 37° C., 5% CO2 incubator for 0.5 h.
(§2) Effector cells (FcrR3A-V158-NFAT-RE-Jurkat cells) were harvested, centrifuged at 1000 rpm, resuspended, and counted. The cells were resuspended at a density of 3×10^6 cells/mL in phenol red-free RPMI 1640 supplemented with 10% FBS (New Zealand ultra-low IgG fetal bovine serum), and then were added to the plate at 25 μL/well (7.5×10^4 cells/well). The plate was incubated in a 37° C., 5% CO2 incubator for 6 h.
(§3) BRIGHT-GLO™ (PROMEGA™, E2610) was added to the plate at 75 μL/well, and the chemical luminescence was detected using a microplate reader (PerkinElmer, VITOR3).

[2] = tested on: NUGC4 cells expressing Claudin18.2 at low levels; assay: ADCC effect evaluation of antibodies (low expression); assay type: cell-based, human; conditions: in words; low levels (FIG. 3A)
Protocol: as §1, §2, §3

[3] = tested on: NUGC4 cells expressing Claudin18.2 at high levels; assay: ADCC effect evaluation of antibodies (high expression); assay type: cell-based, human; conditions: in words; high levels (FIG. 3C)
Protocol: as §1, §2, §3

[4] = tested on: NUGC4-claudin18.2 moderate expression cells; assay: In vitro cell killing experiment of ADCs (CellTiter-Glo), moderate expression; assay type: cell-based, human; conditions: 6 days
Protocol: CELLTITER-GLO® luminescence cell viability assays were used to test ADC molecules for the in vitro killing effects on the human gastric cancer cell strain in this experiment. On day 1, NUGC4-claudin 18.2 low expression, NUGC4-claudin 18.2 moderate expression and NUGC4-claudin18.2 high expression cells were harvested, adjusted to density 2.5×10^4/mL, and added to a 96-well white transparent plate at 90 μL/well, with about 2500 cells per well. The cells were cultured overnight in a 37° C., 5% CO2 incubator. On day 2, samples were 4× diluted serially from an initial concentration of 5 μM in a U-bottom 96-well plate to obtain 9 concentration points, and the diluted samples were added to the cell plate at 10 μL/well. The cells were cultured at 37° C. with 5% CO2 for 6 days. On day 8, the cell culture plate was taken out, and CELLTITER-GLO® Reagent was added at 50 μL/well. The plate was let stand at room temperature for 2 to 3 min and analyzed on a PHERAstar FS microplate reader for fluorescence readings. Data analysis was performed using GraphPad Prism software.

[5] = tested on: human gastric cancer cells NUGC4 (expressing Claudin18.2 at moderate levels); assay: In vivo efficacy of ADC molecules, subcutaneous xenograft; set-up: species or system Balb/c nude mice; conditions: intraperitoneal; for Mean tumor volume (mm^3) D 0: day 0 (baseline); for Mean tumor volume (mm^3) D 32 / % tumor inhibition rate D 32: day 32; for % tumor inhibition rate D 32: p < 0.01 vs. blank control group; for Relative tumor volume D 0: RTV=VT/V0
Protocol: Balb/c nude mice were subcutaneously inoculated at the right flank with human gastric cancer cells NUGC4 (expressing Claudin18.2 at moderate levels) cells (5×10^6, containing 50% matrigel/mouse). The mice were divided into a total of 8 groups of 8 on day 0. The mean tumor volume was about 84.41 mm^3.
Each mouse was intraperitoneally injected with ADC at 0.1 mL/10 g body weight on days 0, 4 and 11, making a total of 3 injections.
Each mouse was intraperitoneally injected with ADC at 0.1 mL/10 g body weight from the day of grouping at intervals of 5 days, and a total of 4 injections were given.
The tumor volumes and body weights were measured twice a week and the results were recorded.
Excel 2003 statistical software was used. The mean values were calculated as avg; the SD values were calculated as STDEV; the SEM values were calculated as STDEV/SQRT; and the inter-group difference P-value was calculated as TTEST.
Tumor volume (V) was calculated as: V=½×Llong×Lshort^2
Relative volume (RTV)=VT/V0
Tumor inhibition rate (%)=(CRTV−TRTV)/CRTV (%) • where V0 and VT are the tumor volume at the beginning of the experiment (the day of first administration is defined as day 0) and the tumor volume at the end of the experiment, respectively; CRTV and TRTV are the relative tumor volumes of the blank control group (Vehicle) and the experimental groups, respectively, at the end of the experiment.

| Molecule | ADCC activity [1] | ADCC activity [2] | ADCC activity [3] | Emax [4] | Mean tumor volume (mm^3) D 0 ([5]; 3 mpk) | Mean tumor volume (mm^3) D 32 ([5]; 3 mpk) | % tumor inhibition rate D 32 ([5]; 3 mpk) | Relative tumor volume D 0 ([5]; 3 mpk) | Mean tumor volume (mm^3) D 0 ([5]; 10 mpk) | Mean tumor volume (mm^3) D 32 ([5]; 10 mpk) | % tumor inhibition rate D 32 ([5]; 10 mpk) | Relative tumor volume D 0 ([5]; 10 mpk) |
| --- | --- | --- | --- | --- | --- | --- | --- | --- | --- | --- | --- | --- |
| h1901-11: humanized antibody of mAb1901: light chain L3 (SEQ ID NO: 41), heavy chain H3 (SEQ ID NO: 44) (antibody, Synthetic Sequence_H3; Synthetic Sequence_L3) heavy: EVQLVESGGGLVQPGGSLRLSCAASGFTFSDYGIHWVRQAPGKGLEWIAYISRGSSTIYYADTVKGRFTISRDNAKNSLYLQMTSLRAEDTAVYYCARGGYDTRNAMDYWGQGTTVTVSS[… human IgG1 constant region …] light: DIVMTQSPDSLAVSLGERATISCKSSQSLLNSGNQKNYLAWYQQKPGQPPKLLIYGASTRASGVPDRFSGSGSGTDFTLTISSLQAEDVAIYHCQNDLYYPLTFGQGTKLEIKRTVAAPSVFIFPPSDEQLKSGTASVVCLLNNFYPREAKVQWKVDNALQSGNSQESVTEQDSKDSTYSLSSTLTLSKADYEKHKVYACEVTHQGLSSPVTKSFNRGEC | high ADCC activity | high ADCC activity | high ADCC activity |  |  |  |  |  |  |  |  |  |
| h1902-5: humanized antibody of mAb1902: light chain L12 (SEQ ID NO: 47), heavy chain H11 (SEQ ID NO: 49) (antibody, Synthetic Sequence_H11; Synthetic Sequence_L12) heavy: EVQLVQSGAEVKKPGASVKVSCKASGYTFTSYWMHWVRQAPGQRLEWMGMIHPNSGSTNYNEKFKGRVTITRDTSASTAYMELSSLRSEDTAVYYCARLKTGNSFDYWGQGTTVTVSS[… human IgG1 constant region …] light: DIVLTQSPDSLAVSLGERATINCKSSQSLLNSGNQKNYLTWYQQKPGQPPKLLIYWASTRESGVPDRFSGSGSGTDFTLTISSLQAEDVAVYYCQNAYTYPFTFGQGTKLEIKRTVAAPSVFIFPPSDEQLKSGTASVVCLLNNFYPREAKVQWKVDNALQSGNSQESVTEQDSKDSTYSLSSTLTLSKADYEKHKVYACEVTHQGLSSPVTKSFNRGEC | high ADCC activity | high ADCC activity | high ADCC activity |  |  |  |  |  |  |  |  |  |
| ADC-2 (conjugate) heavy: EVQLVESGGGLVQPGGSLRLSCAASGFTFSDYGIHWVRQAPGKGLEWIAYISRGSSTIYYADTVKGRFTISRDNAKNSLYLQMTSLRAEDTAVYYCARGGYDTRNAMDYWGQGTTVTVSS[… human IgG1 constant region …] light: DIVMTQSPDSLAVSLGERATISCKSSQSLLNSGNQKNYLAWYQQKPGQPPKLLIYGASTRASGVPDRFSGSGSGTDFTLTISSLQAEDVAIYHCQNDLYYPLTFGQGTKLEIKRTVAAPSVFIFPPSDEQLKSGTASVVCLLNNFYPREAKVQWKVDNALQSGNSQESVTEQDSKDSTYSLSSTLTLSKADYEKHKVYACEVTHQGLSSPVTKSFNRGEC |  |  |  | 82.3 | 84.35 mm^3 | 328.95 mm^3 | 84.45%** | 3.86 | 83.93 mm^3 | 263.13 mm^3 | 87.47%** | 3.11 |

Marks after values point to notes of the source that are not given here.
